Experimental data: the supplement of paper PMC8948288
The sequences are guide strands of siRNAs; only the seed at positions 2 to 7 varies.

Columns and labels:
GL261 = test: cell viability relative to siNT1 (ATP content); H4 human neuroglioma and GL261 mouse glioma; higher = less toxic; settings: siRNA concentration 25 nM; 96 h; mouse
Method: (§1)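 Arrayed screen of all 4096 6mer seeds. Each seed sits at guide-strand positions 2-7 of a neutral 19mer siRNA backbone (siNT1-based, passenger strand 2'-O-methyl modified at positions 1-2 to block RISC loading, 3' DNA overhangs). The guide strand is built here as U + seed + ACAUGUAAACCA. Cells were reverse transfected in triplicate in 384-well plates (H4 at 10 nM, GL261 at 25 nM) with Lipofectamine RNAiMAX. Viability was read as ATP content (CellTiter-Glo) 96 h after transfection and normalised to siNT1 (%).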

H4 = test: as above; settings: siRNA concentration 10 nM; 96 h; human
Method: as §1
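Note: cells reverse transfected with siRNA duplexes via lipid reagent, ATP read by luminescence, triplicate wells, values scaled to mean viability with non-targeting control siNT1.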

UCAAUUAACAUGUAAACCA
cell viability (GL261): 66.9%
cell viability (H4): 118%

UCAAUUCACAUGUAAACCA
cell viability (GL261): 62.1%
cell viability (H4): 81.2%

UCAAUUGACAUGUAAACCA
cell viability (GL261): 79.3%
cell viability (H4): 113%

UCAAUUUACAUGUAAACCA
cell viability (GL261): 53.5%
cell viability (H4): 87.2%

UCACAAAACAUGUAAACCA
cell viability (GL261): 31.7%
cell viability (H4): 90.3%

UCACAACACAUGUAAACCA
cell viability (GL261): 17.1%
cell viability (H4): 89.8%

UCACAAGACAUGUAAACCA
cell viability (GL261): 48.4%
cell viability (H4): 95.3%

UCACAAUACAUGUAAACCA
cell viability (GL261): 24.1%
cell viability (H4): 87.8%

UCACACAACAUGUAAACCA
cell viability (GL261): 42.9%
cell viability (H4): 97.2%

UCACACCACAUGUAAACCA
cell viability (GL261): 19.8%
cell viability (H4): 40.3%

UCACACGACAUGUAAACCA
cell viability (GL261): 21.4%
cell viability (H4): 105%

UCACACUACAUGUAAACCA
cell viability (GL261): 20.2%
cell viability (H4): 75.3%

UCACAGAACAUGUAAACCA
cell viability (GL261): 12.8%
cell viability (H4): 72.8%

UCACAGCACAUGUAAACCA
cell viability (GL261): 10.9%
cell viability (H4): 31.5%

UCACAGGACAUGUAAACCA
cell viability (GL261): 11.6%
cell viability (H4): 80.8%

UCACAGUACAUGUAAACCA
cell viability (GL261): 21.6%
cell viability (H4): 60.6%

UCACAUAACAUGUAAACCA
cell viability (GL261): 27.8%
cell viability (H4): 78%

UCACAUCACAUGUAAACCA
cell viability (GL261): 15.9%
cell viability (H4): 93.1%

UCACAUGACAUGUAAACCA
cell viability (GL261): 37.5%
cell viability (H4): 95.5%

UCACAUUACAUGUAAACCA
cell viability (GL261): 41.8%
cell viability (H4): 119%

UCACCAAACAUGUAAACCA
cell viability (GL261): 21.3%
cell viability (H4): 100%

UCACCACACAUGUAAACCA
cell viability (GL261): 25.5%
cell viability (H4): 65.9%

UCACCAGACAUGUAAACCA
cell viability (GL261): 26.4%
cell viability (H4): 97.6%

UCACCAUACAUGUAAACCA
cell viability (GL261): 25.4%
cell viability (H4): 74.5%

UCACCCAACAUGUAAACCA
cell viability (GL261): 22.5%
cell viability (H4): 104%

UCACCCCACAUGUAAACCA
cell viability (GL261): 16.2%
cell viability (H4): 12.9%

UCACCCGACAUGUAAACCA
cell viability (GL261): 37.1%
cell viability (H4): 75.9%

UCACCCUACAUGUAAACCA
cell viability (GL261): 26.4%
cell viability (H4): 65.4%

UCACCGAACAUGUAAACCA
cell viability (GL261): 36.3%
cell viability (H4): 100%

UCACCGCACAUGUAAACCA
cell viability (GL261): 9.53%
cell viability (H4): 33.7%

UCACCGGACAUGUAAACCA
cell viability (GL261): 22.9%
cell viability (H4): 81%

UCACCGUACAUGUAAACCA
cell viability (GL261): 18.1%
cell viability (H4): 81.5%

UCACCUAACAUGUAAACCA
cell viability (GL261): 43.9%
cell viability (H4): 77.7%

UCACCUCACAUGUAAACCA
cell viability (GL261): 25.2%
cell viability (H4): 70.3%

UCACCUGACAUGUAAACCA
cell viability (GL261): 44.1%
cell viability (H4): 97.5%

UCACCUUACAUGUAAACCA
cell viability (GL261): 42.5%
cell viability (H4): 80%

UCACGAAACAUGUAAACCA
cell viability (GL261): 37.4%
cell viability (H4): 103%

UCACGACACAUGUAAACCA
cell viability (GL261): 27.1%
cell viability (H4): 74.6%

UCACGAGACAUGUAAACCA
cell viability (GL261): 36.9%
cell viability (H4): 74.2%

UCACGAUACAUGUAAACCA
cell viability (GL261): 50.9%
cell viability (H4): 90.1%

UCACGCAACAUGUAAACCA
cell viability (GL261): 29.1%
cell viability (H4): 79.2%

UCACGCCACAUGUAAACCA
cell viability (GL261): 12.6%
cell viability (H4): 83.2%

UCACGCGACAUGUAAACCA
cell viability (GL261): 35.7%
cell viability (H4): 81.9%

UCACGCUACAUGUAAACCA
cell viability (GL261): 13.7%
cell viability (H4): 122%

UCACGGAACAUGUAAACCA
cell viability (GL261): 23.5%
cell viability (H4): 71%

UCACGGCACAUGUAAACCA
cell viability (GL261): 23.2%
cell viability (H4): 46.3%

UCACGGGACAUGUAAACCA
cell viability (GL261): 13.1%
cell viability (H4): 59.7%

UCACGGUACAUGUAAACCA
cell viability (GL261): 13.3%
cell viability (H4): 66%

UCACGUAACAUGUAAACCA
cell viability (GL261): 33.5%
cell viability (H4): 115%

UCACGUCACAUGUAAACCA
cell viability (GL261): 19.9%
cell viability (H4): 87.6%

UCACGUGACAUGUAAACCA
cell viability (GL261): 38.2%
cell viability (H4): 71.1%

UCACGUUACAUGUAAACCA
cell viability (GL261): 37.4%
cell viability (H4): 80.1%

UCACUAAACAUGUAAACCA
cell viability (GL261): 42%
cell viability (H4): 110%

UCACUACACAUGUAAACCA
cell viability (GL261): 31.4%
cell viability (H4): 72.2%

UCACUAGACAUGUAAACCA
cell viability (GL261): 32.3%
cell viability (H4): 67.9%

UCACUAUACAUGUAAACCA
cell viability (GL261): 35.2%
cell viability (H4): 68.6%

UCACUCAACAUGUAAACCA
cell viability (GL261): 32.2%
cell viability (H4): 68.4%

UCACUCCACAUGUAAACCA
cell viability (GL261): 18%
cell viability (H4): 37%

UCACUCGACAUGUAAACCA
cell viability (GL261): 30.2%
cell viability (H4): 92.1%

UCACUCUACAUGUAAACCA
cell viability (GL261): 17.3%
cell viability (H4): 92.8%

UCACUGAACAUGUAAACCA
cell viability (GL261): 26.9%
cell viability (H4): 110%

UCACUGCACAUGUAAACCA
cell viability (GL261): 10.8%
cell viability (H4): 33.5%

UCACUGGACAUGUAAACCA
cell viability (GL261): 37.3%
cell viability (H4): 36.8%

UCACUGUACAUGUAAACCA
cell viability (GL261): 11.4%
cell viability (H4): 51.2%

UCACUUAACAUGUAAACCA
cell viability (GL261): 61.9%
cell viability (H4): 95.1%

UCACUUCACAUGUAAACCA
cell viability (GL261): 25.8%
cell viability (H4): 41.4%

UCACUUGACAUGUAAACCA
cell viability (GL261): 44.7%
cell viability (H4): 70.4%

UCACUUUACAUGUAAACCA
cell viability (GL261): 36.8%
cell viability (H4): 80.4%

UCAGAAAACAUGUAAACCA
cell viability (GL261): 47.4%
cell viability (H4): 98.3%

UCAGAACACAUGUAAACCA
cell viability (GL261): 51.9%
cell viability (H4): 74.7%

UCAGAAGACAUGUAAACCA
cell viability (GL261): 70.2%
cell viability (H4): 113%

UCAGAAUACAUGUAAACCA
cell viability (GL261): 44.1%
cell viability (H4): 80%

UCAGACAACAUGUAAACCA
cell viability (GL261): 64.3%
cell viability (H4): 119%

UCAGACCACAUGUAAACCA
cell viability (GL261): 26.2%
cell viability (H4): 66.9%

UCAGACGACAUGUAAACCA
cell viability (GL261): 51.8%
cell viability (H4): 97.6%

UCAGACUACAUGUAAACCA
cell viability (GL261): 20.2%
cell viability (H4): 88.9%

UCAGAGAACAUGUAAACCA
cell viability (GL261): 37%
cell viability (H4): 71.3%

UCAGAGCACAUGUAAACCA
cell viability (GL261): 31.7%
cell viability (H4): 63.9%

UCAGAGGACAUGUAAACCA
cell viability (GL261): 29.9%
cell viability (H4): 81.8%

UCAGAGUACAUGUAAACCA
cell viability (GL261): 31.8%
cell viability (H4): 68.5%

UCAGAUAACAUGUAAACCA
cell viability (GL261): 52.1%
cell viability (H4): 96.9%

UCAGAUCACAUGUAAACCA
cell viability (GL261): 37.3%
cell viability (H4): 87.3%

UCAGAUGACAUGUAAACCA
cell viability (GL261): 55.6%
cell viability (H4): 67.9%

UCAGAUUACAUGUAAACCA
cell viability (GL261): 54.3%
cell viability (H4): 82.2%

UCAGCAAACAUGUAAACCA
cell viability (GL261): 40%
cell viability (H4): 78%

UCAGCACACAUGUAAACCA
cell viability (GL261): 9.31%
cell viability (H4): 112%

UCAGCAGACAUGUAAACCA
cell viability (GL261): 42.2%
cell viability (H4): 66.5%

UCAGCAUACAUGUAAACCA
cell viability (GL261): 27%
cell viability (H4): 99.7%

UCAGCCAACAUGUAAACCA
cell viability (GL261): 37.4%
cell viability (H4): 72.5%

UCAGCCCACAUGUAAACCA
cell viability (GL261): 22.5%
cell viability (H4): 53.3%

UCAGCCGACAUGUAAACCA
cell viability (GL261): 31.7%
cell viability (H4): 91.1%

UCAGCCUACAUGUAAACCA
cell viability (GL261): 34.5%
cell viability (H4): 54.5%

UCAGCGAACAUGUAAACCA
cell viability (GL261): 22.8%
cell viability (H4): 89.9%

UCAGCGCACAUGUAAACCA
cell viability (GL261): 20.5%
cell viability (H4): 82.4%

UCAGCGGACAUGUAAACCA
cell viability (GL261): 31.8%
cell viability (H4): 66.9%

UCAGCGUACAUGUAAACCA
cell viability (GL261): 30.5%
cell viability (H4): 94.8%

UCAGCUAACAUGUAAACCA
cell viability (GL261): 42%
cell viability (H4): 84.6%

UCAGCUCACAUGUAAACCA
cell viability (GL261): 34%
cell viability (H4): 86.9%

UCAGCUGACAUGUAAACCA
cell viability (GL261): 40.1%
cell viability (H4): 76.1%

UCAGCUUACAUGUAAACCA
cell viability (GL261): 25.5%
cell viability (H4): 100%

UCAGGAAACAUGUAAACCA
cell viability (GL261): 71.8%
cell viability (H4): 118%

UCAGGACACAUGUAAACCA
cell viability (GL261): 30.6%
cell viability (H4): 35.8%

UCAGGAGACAUGUAAACCA
cell viability (GL261): 40.8%
cell viability (H4): 77.5%

UCAGGAUACAUGUAAACCA
cell viability (GL261): 44.7%
cell viability (H4): 101%

UCAGGCAACAUGUAAACCA
cell viability (GL261): 24.2%
cell viability (H4): 85.4%

UCAGGCCACAUGUAAACCA
cell viability (GL261): 3.63%
cell viability (H4): 5.95%

UCAGGCGACAUGUAAACCA
cell viability (GL261): 21.8%
cell viability (H4): 67.4%

UCAGGCUACAUGUAAACCA
cell viability (GL261): 37.2%
cell viability (H4): 58.9%

UCAGGGAACAUGUAAACCA
cell viability (GL261): 33.6%
cell viability (H4): 80.7%

UCAGGGCACAUGUAAACCA
cell viability (GL261): 12.9%
cell viability (H4): 6.7%

UCAGGGGACAUGUAAACCA
cell viability (GL261): 16.7%
cell viability (H4): 30%

UCAGGGUACAUGUAAACCA
cell viability (GL261): 20.1%
cell viability (H4): 21.1%

UCAGGUAACAUGUAAACCA
cell viability (GL261): 54.1%
cell viability (H4): 105%
